Test results taken from PubChem BioAssay AID1347165 (National Center for Advancing Translational Sciences (NCATS), 2019).
Hit rate of the full screen: of about 220,000 compounds, about 5,700 (2.6%) were called active. The inconclusive results got no clear call from the source; some entries with a clear call stand among them for comparison. Calls follow the shape of the dose curve; as a rule, active = well fitted inhibition curve with a large enough effect; inconclusive = small, poorly fitted or top-dose-only effect; inactive = no such curve, though single readings can be large or run the other way. Potencies beside an inconclusive call are fits to weak or partial responses and may not hold up.

target: Lysine-specific demethylase 5B (Homo sapiens) (UniProt Q9UGL1); test: Primary screen for KDM5B Histone Demethylases FDH-coupled qHTS; conditions: FDH-coupled NADH fluorescence (FDH is formaldehyde dehydrogenase); activity change, negative = inhibition: at 57.7 µM (top of the series) unless noted; also: nearly all actives have a fitted effect of over 70% in size; as to activity change, negative = inhibition: 0% is about no effect
Summary of the method: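 Compound dilutions met 200 nM (final) KDM5BΔAP for 10 min at room temperature before substrate addition. The substrate mix held 12.5 µM H3K4me3 with cofactors 25 µM α-ketoglutarate and 50 µM Fe²⁺. NADH signal gain over 30 min defined activity.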
Potency is read from the fitted curve at half-maximal effect; tags tell the direction and shape of the fitted curve.

Chain of UniProt Q9UGL1 (Q9UGL1 whole entry, looked up): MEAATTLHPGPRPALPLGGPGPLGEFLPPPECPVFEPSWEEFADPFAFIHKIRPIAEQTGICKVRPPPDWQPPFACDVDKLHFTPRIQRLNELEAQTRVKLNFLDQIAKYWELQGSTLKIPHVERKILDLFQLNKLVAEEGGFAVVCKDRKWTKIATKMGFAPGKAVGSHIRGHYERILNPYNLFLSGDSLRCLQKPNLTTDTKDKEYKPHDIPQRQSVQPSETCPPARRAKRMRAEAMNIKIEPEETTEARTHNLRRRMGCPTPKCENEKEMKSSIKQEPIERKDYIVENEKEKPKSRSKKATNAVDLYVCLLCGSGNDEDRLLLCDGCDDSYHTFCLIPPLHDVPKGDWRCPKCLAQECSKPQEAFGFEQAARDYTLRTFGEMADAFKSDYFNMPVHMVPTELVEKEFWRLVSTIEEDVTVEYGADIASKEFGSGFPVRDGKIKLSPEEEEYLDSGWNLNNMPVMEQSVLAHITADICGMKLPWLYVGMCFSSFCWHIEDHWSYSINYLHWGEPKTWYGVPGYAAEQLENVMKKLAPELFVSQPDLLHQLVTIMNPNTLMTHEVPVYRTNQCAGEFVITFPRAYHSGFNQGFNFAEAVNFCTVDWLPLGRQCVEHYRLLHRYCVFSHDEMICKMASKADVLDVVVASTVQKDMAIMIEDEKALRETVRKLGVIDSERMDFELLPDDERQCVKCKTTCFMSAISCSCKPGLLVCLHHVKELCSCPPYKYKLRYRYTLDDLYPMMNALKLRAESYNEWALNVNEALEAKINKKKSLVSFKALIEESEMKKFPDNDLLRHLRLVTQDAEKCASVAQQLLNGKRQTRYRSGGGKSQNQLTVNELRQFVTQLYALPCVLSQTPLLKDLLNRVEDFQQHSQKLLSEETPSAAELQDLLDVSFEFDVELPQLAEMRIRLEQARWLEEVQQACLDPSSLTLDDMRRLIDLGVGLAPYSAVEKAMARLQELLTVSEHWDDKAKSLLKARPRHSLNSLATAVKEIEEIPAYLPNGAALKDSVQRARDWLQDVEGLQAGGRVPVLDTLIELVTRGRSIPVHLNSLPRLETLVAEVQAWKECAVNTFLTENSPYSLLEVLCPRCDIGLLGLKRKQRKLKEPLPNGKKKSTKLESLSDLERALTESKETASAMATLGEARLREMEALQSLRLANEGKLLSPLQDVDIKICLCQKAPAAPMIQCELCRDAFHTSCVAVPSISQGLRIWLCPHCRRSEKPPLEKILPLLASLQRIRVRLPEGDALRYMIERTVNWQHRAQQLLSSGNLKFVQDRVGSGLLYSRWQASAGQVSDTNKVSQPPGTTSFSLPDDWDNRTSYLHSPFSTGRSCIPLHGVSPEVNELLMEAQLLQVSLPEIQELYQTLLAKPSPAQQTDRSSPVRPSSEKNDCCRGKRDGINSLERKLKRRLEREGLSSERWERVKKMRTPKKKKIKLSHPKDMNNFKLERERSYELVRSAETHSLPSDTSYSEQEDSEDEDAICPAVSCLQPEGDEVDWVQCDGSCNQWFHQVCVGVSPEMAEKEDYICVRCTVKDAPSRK

**Q.** Cc1ccc(-c2cc(N3CCCN(C(=O)COc4ccccc4)CC3)n[nH]2)cc1C was tested. Which Potency did it give?
**A.** Its Potency is inconclusive: 17.8 µM [inhibitor, partial curve, poor fit].

**Q.** Which “activity change, negative = inhibition” value does the source give for CNC(=O)CCN(C)C(=O)Nc1cccc(C#N)c1 here?
**A.** Its value is inactive: 1.88%.

**Q.** For Cc1ccc(C(=O)Nc2ccc(-c3nccs3)cc2)c(C)c1, which Potency is on record?
**A.** Its Potency is inconclusive: 25.1 µM [inhibitor, partial curve, poor fit].

**Q.** With O=C(O)c1ccccc1Oc1ccccc1 as the compound, how does the “activity change, negative = inhibition” value read?
**A.** Its value is inactive: 10.6%.

**Q.** Which Potency does the source give for CC1=C(C(=O)Nc2ccc(C)cn2)C(c2cccc(Oc3ccccc3)c2)C2=C(CCCC2=O)N1 (stereo not given) here?
**A.** The Potency was inconclusive: 28.2 µM [inhibitor, partial curve, poor fit].

**Q.** How did the Potency turn out when COCc1ccc2c(c1)c(OC(C)(C)C(=O)N1CCN(C)CC1)nn2Cc1ccccc1 was run?
**A.** The Potency was inconclusive: 39.8 µM [inhibitor, single point].

**Q.** Which “activity change, negative = inhibition” value does the source give for CCOC(=O)c1cccc(OCc2ccc(C#N)cc2)c1 here?
**A.** The value was inactive: 19.8%.

**Q.** How did the Potency turn out when CCCOc1nccnc1NC1CCN(C(=O)c2ccccn2)CC1 was run?
**A.** Its Potency is active: 28.2 µM.

**Q.** How did the “activity change, negative = inhibition” value turn out when COc1ccc(NC(=O)CCCc2nc(C(C)C)no2)cc1OC1CCCC1 was run?
**A.** The value was inactive: -9.5%.

**Q.** For Cc1ccc(CN(Cc2ccco2)C(=O)c2ccc(OCC(C)C)cc2)cc1, which Potency is on record?
**A.** Its Potency is inconclusive: 15.8 µM [inhibitor, partial curve, poor fit].

**Q.** With Cc1cnc(NC(=O)Cc2ccc(OCc3c(C)noc3C)cc2)s1 as the compound, how does the “activity change, negative = inhibition” value read?
**A.** The value was inactive: 11.8%.

**Q.** With COCc1cccc(C(=O)NC(C)c2ccc(F)c(F)c2)c1 (stereo not given) as the compound, how does the “activity change, negative = inhibition” value read?
**A.** The value was inactive: 13.9%.

**Q.** CNC(=O)c1ccc(CNc2nc(CCN)nc3sc(C)c(C)c23)o1 was tested. Which Potency did it give?
**A.** The Potency was inconclusive: 20 µM [inhibitor, partial curve, poor fit].

**Q.** Which “activity change, negative = inhibition” value does the source give for O=C(Nc1ccccc1)c1cc(S(=O)(=O)N2CCOCC2)ccc1F here?
**A.** The value was inactive: 4.95%.

**Q.** CCCCN1CCc2nc(Nc3ccc(OC)cc3OC)ncc2C1 was tested. Which Potency did it give?
**A.** Its Potency is inconclusive: 39.8 µM [inhibitor, single point].

**Q.** Which Potency does the source give for CC1=C(C(=O)N(C)C)C(c2ccc(Cl)cc2)N2C(CC(=O)NCc3ccccc3)=CSC2=N1 (stereo not given) here?
**A.** Its Potency is inconclusive: 25.1 µM [inhibitor, partial curve].

**Q.** With N#Cc1ccccc1CN1CCNc2nc(COc3ccccc3)n(Cc3ccccc3)c2C1=O as the compound, how does the Potency read?
**A.** Its Potency is inconclusive: 35.5 µM [inhibitor, single point].

**Q.** How did the Potency turn out when O=C(CC[C@@H]1CNC(=O)[C@@H]2C[C@H](NC(=O)c3ccccc3)CN12)NCc1ccc(F)cc1 was run?
**A.** Its Potency is inconclusive: 31.6 µM [inhibitor, partial curve, poor fit].

**Q.** How did the “activity change, negative = inhibition” value turn out when O=C(NCCC1CCN(C(=O)Nc2ccccc2F)CC1)C1CCCC1 was run?
**A.** Its value is inactive: 1.6%.

**Q.** With COc1ccc2[nH]c3c(c2c1)CCN(C(=O)c1cccc(Cl)c1)C3c1ccc(F)cc1 (stereo not given) as the compound, how does the Potency read?
**A.** Its Potency is inconclusive: 3.16 µM [inhibitor, partial curve, poor fit].

**Q.** With O=C(Nc1ccc(F)cc1)c1cc2n(n1)CC(c1ccc3c(c1)OCO3)OC2 (stereo not given) as the compound, how does the Potency read?
**A.** Its Potency is inconclusive: 25.1 µM [inhibitor, single point].

**Q.** COc1ccc(CNC(=O)CC2CCCN(c3cnn(CC4CC4)c(=O)c3)C2)cc1 (stereo not given) was tested. Which “activity change, negative = inhibition” value did it give?
**A.** Its value is inactive: -10.5%.

**Q.** CC(NC(=O)c1ccc(Cl)cc1)C12CC3CC(CC(C3)C1)C2 (stereo not given) was tested. Which “activity change, negative = inhibition” value did it give?
**A.** Its value is inactive: 17.5%.

**Q.** Cc1cc(C(=O)N2CCN(c3ccc(C(F)(F)F)cn3)CC2)c(C)o1 was tested. Which Potency did it give?
**A.** The Potency was inconclusive: 39.8 µM [inhibitor, single point].

**Q.** Which Potency does the source give for O=C(CSc1ccc(Br)cc1)c1ccc(C2CCCCC2)cc1 here?
**A.** The Potency was inconclusive: 28.2 µM [inhibitor, partial curve, poor fit].

**Q.** With Nc1nnnn1NCc1cc(Cl)ccc1OCc1ccc(F)cc1Cl as the compound, how does the “activity change, negative = inhibition” value read?
**A.** Its value is inactive: 4.54%.

**Q.** Which Potency does the source give for Cc1ccc2cc(CCC(=O)NCc3ccco3)c(=O)[nH]c2c1 here?
**A.** Its Potency is inconclusive: 31.6 µM [inhibitor, partial curve, poor fit].

**Q.** With Cc1cc(NC(=O)c2ccc3c(c2)OCCO3)ccc1NC(=O)c1cc2ccccc2o1 as the compound, how does the Potency read?
**A.** Its Potency is inconclusive: 31.6 µM [inhibitor, single point].

**Q.** How did the Potency turn out when Cn1c(CC2Sc3ccccc3NC2=O)nnc1SCC(=O)c1ccc(Cl)cc1 (stereo not given) was run?
**A.** The Potency was inconclusive: 17.8 µM [inhibitor, partial curve, poor fit].

**Q.** CN1c2cc(C(=O)N3CCN(c4ccccn4)CC3)ccc2C(=O)N2CCCCC21 (stereo not given) was tested. Which Potency did it give?
**A.** The Potency was inconclusive: 25.1 µM [inhibitor, partial curve, poor fit].

**Q.** Which “activity change, negative = inhibition” value does the source give for CCCOc1cc(C)c2c(c1C)C[C@H](C(C)C(=O)N1CCN(CC(=O)O)CC1)CC2 (stereo not given in full) here?
**A.** The value was inactive: -17.9% [at 86.2 µM].

**Q.** With COC(=O)C1(NC(=O)CSc2ccccc2Cl)CCCCC1 as the compound, how does the “activity change, negative = inhibition” value read?
**A.** Its value is inactive: 9.9%.

**Q.** COc1ccc(-c2cc(-c3ccccc3)nc3c2COc2ccc(F)cc2-3)cc1 was tested. Which Potency did it give?
**A.** The Potency was inconclusive: 7.94 µM [inhibitor, partial curve, poor fit].

**Q.** For CCC1CCc2sc(C(=O)NCCC(C)C)cc2C1 (stereo not given), which “activity change, negative = inhibition” value is on record?
**A.** The value was inactive: -1.97%.

**Q.** With O=C(N1CCCC1)N1C2CCC1CN(c1ccc(C(F)(F)F)cc1)C2 as the compound, how does the “activity change, negative = inhibition” value read?
**A.** The value was inactive: 11.6% [at 115 µM].

**Q.** How did the Potency turn out when O=C1CC(c2ccccc2)N(Cc2ccc3[nH]ccc3c2)CCCCCN1 (stereo not given) was run?
**A.** The Potency was inconclusive: 20 µM [inhibitor, partial curve, poor fit].

**Q.** Which Potency does the source give for CCC(C)(C)C1CCC2(CC1)NC(=S)N(CCC(C)C)N2 (stereo not given) here?
**A.** Its Potency is inconclusive: 39.8 µM [inhibitor, single point].

**Q.** For c1ccc(Sc2ccccn2)cc1, which Potency is on record?
**A.** The Potency was inconclusive: 39.8 µM [inhibitor, single point].

**Q.** Which Potency does the source give for Fc1ccc2nc([C@H]3CCN(C4CCC4)C3)[nH]c2c1 here?
**A.** Its Potency is inconclusive: 39.8 µM [inhibitor, partial curve, poor fit].

**Q.** For CC(=O)c1ccc(NC(=O)C23CC4CC(CC(C4)C2)C3)cc1, which “activity change, negative = inhibition” value is on record?
**A.** The value was inactive: 3.84%.

**Q.** How did the Potency turn out when CN1CCOc2c(C(=O)NCC[S+](C)(=O)[O-])cc(-c3ccccc3F)cc21 was run?
**A.** The Potency was active: 35.5 µM.

**Q.** With C=CC[C@@H]1Cc2c(N)cccc2[C@@H](CC=C)N1 as the compound, how does the Potency read?
**A.** The Potency was inconclusive: 10 µM [inhibitor, partial curve, poor fit].

**Q.** CCn1cc(C(=O)N[C@@H](C)C(=O)OC)c(=O)c2cc3c(cc21)OCO3 was tested. Which Potency did it give?
**A.** The Potency was inconclusive: 39.8 µM [inhibitor, single point].

**Q.** With COc1ccc(-c2ocnc2C(=O)Nc2ccc3c(c2)OCCO3)cc1 as the compound, how does the Potency read?
**A.** The Potency was inconclusive: 22.4 µM [inhibitor, partial curve, poor fit].

**Q.** How did the activity change, negative = inhibition turn out when Cc1ccc(C(=O)c2oc3ccccc3c2NC(=O)COc2ccc(C(C)C)cc2)cc1 was run?
**A.** Its activity change, negative = inhibition is inconclusive: -42% [inhibitor].
